Test results from patent publication US20240294636A1 (YALE UNIVERSITY, published 2024).

Key:
Robo4 = biological target: T1, Robo4 (mouse, UniProt Q8C310 28-1012, limits assumed); experiment: co-immunoprecipitation with Unc5B (IP: Unc5B (R&D)) from brain lysates of antibody-injected mice, western blot
T1 sequence (looked up): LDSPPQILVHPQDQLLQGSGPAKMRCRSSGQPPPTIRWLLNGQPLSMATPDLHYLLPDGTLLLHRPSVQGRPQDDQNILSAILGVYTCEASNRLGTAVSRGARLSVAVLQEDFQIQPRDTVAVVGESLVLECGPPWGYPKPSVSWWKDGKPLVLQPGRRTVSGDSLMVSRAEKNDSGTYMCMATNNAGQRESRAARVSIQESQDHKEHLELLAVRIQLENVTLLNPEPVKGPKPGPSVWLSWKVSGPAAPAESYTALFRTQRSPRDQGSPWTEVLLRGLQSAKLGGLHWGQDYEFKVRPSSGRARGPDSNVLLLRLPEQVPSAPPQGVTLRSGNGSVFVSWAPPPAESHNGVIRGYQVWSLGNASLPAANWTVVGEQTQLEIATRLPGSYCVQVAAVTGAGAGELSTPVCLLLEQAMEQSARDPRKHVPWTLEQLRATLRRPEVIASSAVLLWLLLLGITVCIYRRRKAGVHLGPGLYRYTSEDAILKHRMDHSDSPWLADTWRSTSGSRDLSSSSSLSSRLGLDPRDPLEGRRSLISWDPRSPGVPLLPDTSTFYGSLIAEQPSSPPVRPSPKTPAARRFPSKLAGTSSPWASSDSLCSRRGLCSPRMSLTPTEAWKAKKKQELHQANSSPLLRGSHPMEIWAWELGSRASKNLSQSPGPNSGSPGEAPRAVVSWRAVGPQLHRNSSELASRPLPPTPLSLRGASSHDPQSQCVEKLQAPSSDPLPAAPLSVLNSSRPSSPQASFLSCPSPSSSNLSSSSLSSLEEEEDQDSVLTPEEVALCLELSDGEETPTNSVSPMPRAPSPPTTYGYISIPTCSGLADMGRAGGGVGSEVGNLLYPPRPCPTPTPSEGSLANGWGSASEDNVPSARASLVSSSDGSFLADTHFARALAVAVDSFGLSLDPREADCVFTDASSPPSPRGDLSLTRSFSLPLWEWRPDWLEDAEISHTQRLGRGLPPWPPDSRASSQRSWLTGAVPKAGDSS

Netrin-1 = biological target: T2, Netrin-1 (mouse, UniProt O09118 25-604); experiment: as above
T2 construct: also called recombinant mouse Netrin-1

- binding result (Robo4): binds
- binding result (Netrin-1): binds
B1: mouse Unc5B (receptor)
chain: not shown
notes: whole, on cells; Endogenous protein; also called Uncoordinated 5B
